Data on 167 variants can be found in the RNAGym collection of RNA variant scans (doi:10.1093/nar/gkz1192).

The source gives no read counts; variants with many changes may rest on few reads.

First the molecules themselves.
B1: CPEB3 Ribozyme (parent)
chain: UAACAGGGGGCCACAGCAGAAGCGUUCACGUCGCAGCCCCUGUCAGAUUCUGGUGAAUCUGCGAAUUCUGCUGUAUAUCUC

In the data set the parent is B1. Briefly: self-cleavage, relative activity (ratio to wild type); higher = more cleavage; in vitro, sequencing. In outline:
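Libraries of CPEB3 self-cleaving ribozyme mutants came from rounds of error-prone PCR and carried barcodes, which DNA sequencing matched to variants. In vitro transcription used T7 RNA polymerase at 37°C for 5 hours, with a further 15 min in DNase I before EDTA stopped the reaction; the ribozymes cleaved during both steps. The RNA was reverse transcribed with template switching and sequenced on Illumina. Relative activity is the cleaved/total read fraction of a variant divided by that of the unmutated ribozyme, averaged over three batches with at least 5 reads.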
In the case of G16C U48A U67A U78C, the self-cleavage amounted to 0.07.
With A15U U48C A56U U58A the figure was 0.23; with G16A A21G A45G U54C C62U U67C, 0.13; with A15U A64G U66C U76G, 0.11.
With A18G A20C A28G U43A U54G the figure was 0.35; with C17A A18G U26A A75U, 0.08; with A15U A64G U67G C81U, 0.23.
Regarding A18G A20C U54C U67C U72C, the self-cleavage amounted to 0.12.
With A18G A20G A45G C50A U69A U80C the figure was 0.29.
Take A15U U25C C27U: the self-cleavage is 0.21.
In the case of C17G U54C U69G, the self-cleavage came out at 0.11.
For A15U A35U U74A, the self-cleavage was 0.96.
Regarding C17U A35G U76C, the self-cleavage was determined as 1.2.
With C17U U31A A35U U49C the figure was 0.07.
With G16A A21G U43C U51G the figure was 0.07; with C17U A21G U41G A56G U69C, 0.05; with C17G G19U A47G U66C, 0.05.
With G16A A28G C34G A47G U67C A77U the figure was 0.02.
Regarding A18C A47G C50A U74A, the self-cleavage came out at 0.11.
With A15U A47G U67C the figure was 0.16; with A15U U43A C71G U72A, 0.25.
With G16C A45G U51C the figure was 0.21.
With A15U U58A A65G the figure was 0.17; with A15U A20G U31C C59A U69A, 0.07; with A18C A65G U69A, 0.19.
Regarding A15U U72A U76C, the self-cleavage worked out at 0.62.
For the variant A15U C29A A35G U54C, the self-cleavage was 0.97.
With A15U A56U U60A A75U the figure was 0.13.
With C17G A18G A57G the figure was 0.07; with A15U U31C A35U, 0.15; with A18C C23U U48A U58A, 0.13.
With A18C A20U U60C A65G the figure was 0.33; with G16U A35U A65G, 0.09; with A15U A64U A75C U76A, 0.36.
For A15U C23U U26C U80A, the self-cleavage was 0.27.
Consider A15U A21C A35G U48C U54C U66C U76C, for which the self-cleavage was 0.
Regarding A18G A20G A21G A28U U69C, the self-cleavage was 0.36.
As for C17G U26C A28G A56U, the self-cleavage was 0.19.
With A15U A21G G33A A35G U58A U69A the figure was 0.08.
With A15U U25C G30A A45G U67A the figure was 0.1; with A15U U41C U54C A65G U67C U74C U78C, 0.2; with A18C U31C A45C U72C U76C A77G, 0.11.
For A15U A35U U49A A56U, the self-cleavage is 0.82.
Consider G16A C29U A45G U66C, for which the self-cleavage was found to be 0.22.
With C17A U31A U49G U51C A56G the figure was 0.3; with A15U A28G A64U, 0.25; with A15U U49A A64U U69A, 0.08.
With A15U C40A U48C U76A the figure was 0.2; with C17A A35U A56G U58C U69C, 0.14.
Consider A15U U26C C29U U43A A56G A57G, for which the self-cleavage was 0.07.
Turning to A18C U51A U72A U78C, the self-cleavage was 0.2.
With A18G A20G U41A, the self-cleavage worked out at 0.48.
With A18C A45G U69C the figure was 0.16.
With A18C C40A U76A the figure was 0.1.
Take A18C A20U A28G: the self-cleavage came out at 0.05.
For the variant A18C A21G A45G, the self-cleavage is 0.33.
As for G16C A18G G52A, the self-cleavage is 0.36.
Turning to A15U U26A A45U U76C C79G, the self-cleavage was 0.44.
With A18C U41A U43C the figure was 0.25; with A15U G52C U60A, 0.21; with A15U G70C U76C, 0.12.
With A15U U31C A35G U60C the figure was 0.5; with C17U U26A U74A, 0.26; with A15U A28U A56G, 0.23.
Consider A15U A45G A65U A77G, for which the self-cleavage amounted to 0.11.
With G16A U31C U41C A65G U72A the figure was 0.1; with C17G A21G C29G U72G U80A, 0.12; with C17G U25C C34G, 0.13.
With A18C A56U U60G U69C the figure was 0.28; with G16C A20G U51A A57C, 0.11.
Take A18C G36A U41C U69A C71U: the self-cleavage is 0.08.
A18C C37U U51A: the self-cleavage was determined as 0.09.
For A18G A20G U26C A45G U74A, the self-cleavage turned out to be 0.47.
With G16U U25C U58A C62U U69C the figure was 0.12; with A18C U31C U43C U54C C59A, 0.
In the case of C17U U26A U41C A56U U72C, the self-cleavage stood at 0.13.
With A15U U48C A56G A57G the figure was 0.27; with G16A C29U U49A U54C G61A, 0.06.
With A18C U51C G53U A57G A65G U80A the figure was 0.14; with G16A U54C A64U, 0.12; with A18G A20G U25C U80C, 0.09.
On to C17A A45U U60G, for which the self-cleavage was 0.14.
As for A15U C23A C62A G73C, the self-cleavage was 0.23.
With C17U U67C C79A the figure was 0.16; with C17U G33A G36A U48C U80A, 0.06.
With C17U C62U U72A the figure was 0.14.
As to A15U A45G U51A C59A U72C C81G, the self-cleavage amounted to 0.26.
In the case of A15U A21U U31C C32A U78A, the self-cleavage turned out to be 0.09.
For the variant A15U A56G A65G U80C, the self-cleavage was 0.22.
With A15U A20G U51C U72A U74C the figure was 0.99.
For C17A U25C U54A A56G, the self-cleavage was 0.19.
With A15U U25A C29U U69C the figure was 0.06; with G16C C17U U25C A35G A47U U69A, 0.08.
With A18C C32U G33A U72C U74A the figure was 0.3.
With G16A A18U G19C U25C U49C U66C U80A, the self-cleavage amounted to 0.05.
As for G16A A35U A45G C62A U67C U69C, the self-cleavage was determined as 0.07.
With C17U U43A U69C the figure was 0.26.
With C17U A18U A47U the figure was 0.14; with A15U A35G A45U, 1.22.
With A18C A35G U51C U78C the figure was 0.86.
For the variant C17U A45G U69A, the self-cleavage was 0.16.
Regarding A18C U67C U72C, the self-cleavage was determined as 0.2.
As for A15U A28G C40A U41C U49C, the self-cleavage worked out at 0.08.
With A15U U31A U43C A56U the figure was 0.12; with A18C A20G U43C A56U C59U, 0.05.
With A15U C29A U54G U58A U78C the figure was 0.08; with A15U U26C C29U A35C U60C G63A A77G, 0.06.
On to C17A A18U A45G, for which the self-cleavage was found to be 0.21.
With A15U A21U U26C G42A G55U U58C A65G the figure was 0.05; with C17U U43A A57G, 0.53.
With C17U A21G C40A U48C U80A the figure was 0.15; with G16U U26A G30A U43G, 0.21; with A15U U26C A77U, 0.22.
For C17U A64G U78A, the self-cleavage was 0.17.
With A15U A20U C39U the figure was 0.2.
Consider G16A U41G U54C A56U U76C, for which the self-cleavage is 0.1.
For G16A U54C G61A, the self-cleavage was 0.14.
With A15U A45G A56U the figure was 0.18; with A15U A21G U41C U72A, 0.16.
Turning to A15U C38A A56C C59A, the self-cleavage is 0.14.
Consider A15U A28U C68U, for which the self-cleavage came out at 0.26.
With A15U G24A U67C the figure was 0.1; with C17U G30A U78C, 0.12.
With A18C A28U U78C, the self-cleavage was found to be 0.13.
Consider A18C U26C U48C, for which the self-cleavage stood at 0.06.
As to G16C A18U G19U, the self-cleavage worked out at 0.4.
As for A18G A20G A64U U66C, the self-cleavage worked out at 0.17.
As to G16A U31C U51C A64G, the self-cleavage was found to be 0.09.
Take A18C U31C A45G U60C: the self-cleavage is 0.15.
With A15U A35G A56G the figure was 1.3.
Consider G16A U43A U72A, for which the self-cleavage stood at 0.36.
With C17G A20U A28G U69C the figure was 0.16; with G16A A20U U31A U67A, 0.27; with C17A G19U C62G, 0.19.
With G16A U26A U58C U60A the figure was 0.11.
With A18C A64G U78C the figure was 0.18.
For the variant A15U U51G U69A, the self-cleavage worked out at 0.34.
With A18C U58C U69A the figure was 0.37; with C17U U43A G63A U69C U80C, 0.53; with A15U G19A G24C U26C U58G, 0.2.
With A15U A45G A75U the figure was 0.78.
As to G16A U26C U51C, the self-cleavage amounted to 0.4.
For G16C U43C A57U C62U, the self-cleavage was found to be 0.19.
With C17A U25C U41C the figure was 0.15; with A18C U31C A45G G70A U74G A75U, 0.3.
On to A15U U41A A64G, for which the self-cleavage amounted to 0.14.
With A15U A57G A65G the figure was 0.29; with A15U C23G A35U C38U U48C A57G C68U, 0.05; with G16A U25C A45U U80C, 0.24.
As for A18C U41A U67C A75G, the self-cleavage came out at 0.09.
On to A15U C62U U74C A75U, for which the self-cleavage was 0.18.
As to A18G A20G G33U A35C U66C U72C, the self-cleavage was 0.16.
As for A18G A20G C39U U67C, the self-cleavage was determined as 0.46.
Consider A15U A20U U25C A45G, for which the self-cleavage is 0.05.
As to C17U A20U G73A U78C, the self-cleavage was found to be 0.35.
Consider A15U A75U U80A, for which the self-cleavage was 1.22.
Consider A15U U25G U31C G70A A77U, for which the self-cleavage came to 0.07.
In the case of A15U G22A U31A C32A, the self-cleavage came to 0.54.
Take G16U A20U U25C U51C: the self-cleavage worked out at 0.06.
Regarding A15U U26C U41G A65G A77G, the self-cleavage is 0.07.
With A15U C27U U43A A56G U74G the figure was 0.04; with G16A U51C A65G U78A, 0.12; with C17A A64G C71G G73A, 0.05.
Regarding C17U U26C U31C U48C U60A, the self-cleavage worked out at 0.1.
With C17U C23A A35G A45G the figure was 0.23; with A15U C27G A35U, 0.07; with A15U U26C A56G A64U, 0.41.
